Measured values: the supplement of paper PMC8285479
Where a name gives a salt, the structure may show the parent alone. ± gives the standard deviation of the averaged measurements. Whole data set: some 1,900 compounds, median “normalised cell viability (NPI; 0 = phenylarsine oxide control, 1 = DMSO control)” near 1, cut for the lowest 2% near 0.039. The list shows a part of the results.

System: NCI-H1944
Assay: normalised cell viability (NPI; 0 = phenylarsine oxide control, 1 = DMSO control) (fraction of DMSO control); NCI-H1944 is a non-small cell lung cancer line; higher = more viable cells (less compound toxicity)
Settings: 6 days
[1] = glucocorticoid arm: hydrocortisone 2.75 uM co-treatment, compound 1 µM
[2] = glucocorticoid arm: hydrocortisone 2.75 uM co-treatment, compound 5 µM
[3] = glucocorticoid arm: hydrocortisone 2.75 uM pre-treated 2 days and continued, compound 1 µM
[4] = glucocorticoid arm: hydrocortisone 2.75 uM pre-treated 2 days and continued, compound 5 µM
[5] = glucocorticoid arm: vehicle, compound 1 µM
[6] = glucocorticoid arm: vehicle, compound 5 µM
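Also: CTB read-out in 384-well plates, mean of triplicate wells, normalised per plate against 1 µM phenylarsine oxide and 0.1% DMSO, compounds added 24 h after seeding.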

Compound | normalised cell viability [1] | normalised cell viability [2] | normalised cell viability [3] | normalised cell viability [4] | normalised cell viability [5] | normalised cell viability [6]
Cc1ccc(Nc2nccc(N(C)c3ccc4c(C)n(C)nc4c3)n2)cc1S(N)(=O)=O [Pazopanib Hydrochloride] | 1.07 ± 0.011 | 1.07 ± 0.021 | 1.037 ± 0.0058 | 1.05 ± 0.02 | 1.023 ± 0.0058 | 0.9 ± 0.012
Cc1ccc(Nc2nccc(N(C)c3ccc4c(C)n(C)nc4c3)n2)cc1S(N)(=O)=O [Pazopanib HCl] | 1.07 ± 0.01 | 1.06 ± 0.021 | 1.04 ± 0.01 | 1.04 ± 0.031 | 1.02 ± 0.01 | 0.9537 ± 0.0086
CCc1ccc(/C=C2/SC(=S)NC2=O)cc1 | 1.01 ± 0.017 | 1.06 ± 0.011 | 1.04 | 1.04 ± 0.021 | 1.007 ± 0.0058 | 1.013 ± 0.0058
O=c1cc(N2CCOCC2)oc2c(-c3ccccc3)cccc12 [LY-294,002 hydrochloride] | 0.995 ± 0.014 | 0.7767 ± 0.0058 | 1.002 ± 0.0068 | 0.833 ± 0.27 | 1.006 ± 0.0063 | 0.907 ± 0.015
O=c1cc(N2CCOCC2)oc2c(-c3ccccc3)cccc12 | 0.951 ± 0.0066 | 0.74 ± 0.02 | 0.939 ± 0.016 | 0.814 ± 0.05 | 0.974 ± 0.017 | 0.801 ± 0.033
Cc1c(C(=O)Nc2ccc(N3C[C@@H](C)O[C@@H](C)C3)nc2)cccc1-c1ccc(OC(F)(F)F)cc1 [LDE225 (NVP-LDE225,Erismodegib)] | 1.027 ± 0.0058 | 1.02 ± 0.02 | 1.01 ± 0.024 | 1.03 ± 0.021 | 1.02 ± 0.01 | 1.013 ± 0.0058
Nc1cc(C(F)(F)F)c(-c2cc(N3CCOCC3)nc(N3CCOCC3)n2)cn1 | 0.6 ± 0.048 | 0.203 ± 0.0045 | 0.713 ± 0.038 | 0.411 ± 0.029 | 0.613 ± 0.059 | 0.0297 ± 0.0061
CC(C)NNC(=O)c1ccncc1 [Iproniazid phosphate] | 0.994 ± 0.01 | 0.985 ± 0.018 | 0.9983 ± 0.0029 | 1.01 ± 0.087 | 0.9877 ± 0.004 | 0.995 ± 0.013
Cc1cnc(NC(=O)Nc2cc(Br)c(C)cc2OC[C@@H]2CNCCO2)cn1 | 1.03 ± 0.015 | 0.827 ± 0.041 | 1.04 ± 0.015 | 1.04 ± 0.011 | 0.776 ± 0.01 | 0.334 ± 0.027
O=C(O)c1cc(=O)c2ccccc2[nH]1 [Kynurenic acid] | 1 ± 0.01 | 1.01 ± 0.019 | 0.994 ± 0.018 | 1.03 ± 0.071 | 0.9953 ± 0.0072 | 1.01 ± 0.013
Clc1ccc(C(c2ccccc2Cl)C(Cl)Cl)cc1 (stereo not given) [1-(2-Chlorophenyl)-1-(4-chlorophenyl)-2,2-dichloroethane] | 1.013 ± 0.0058 | 0.988 ± 0.01 | 0.993 ± 0.0082 | 1.01 ± 0.026 | 0.984 ± 0.005 | 0.9963 ± 0.0035
Clc1ccc(C(c2ccccc2Cl)C(Cl)Cl)cc1 (stereo not given) | 0.998 ± 0.019 | 1.02 ± 0.037 | 0.998 ± 0.011 | 1.02 ± 0.01 | 0.9913 ± 0.0081 | 1.007 ± 0.0058
Cc1cccc(C)c1OCC(=O)N[C@@H](Cc1ccccc1)[C@@H](O)C[C@H](Cc1ccccc1)NC(=O)[C@H](C(C)C)N1CCCNC1=O [Lopinavir (ABT-378)] | 0.989 ± 0.0069 | 1.033 ± 0.0058 | 1.01 ± 0.014 | 1.03 ± 0.01 | 0.9957 ± 0.0045 | 0.9857 ± 0.0076
COc1cc(CCc2cc(NC(=O)c3ccc(N4CC(C)NC(C)C4)cc3)n[nH]2)cc(OC)c1 (stereo not given) | 1.03 ± 0.01 | 0.735 ± 0.034 | 1.04 | 0.863 ± 0.041 | 1.01 ± 0.019 | 0.91 ± 0.025
CCCCCCCCCCCCCCCCCCNC(=O)OCC(COP(=O)([O-])OCC[n+]1ccsc1)OC (stereo not given) | 0.9967 ± 0.0035 | 1.02 ± 0.011 | 1.02 ± 0.024 | 1.01 ± 0.015 | 0.997 ± 0.0017 | 0.82 ± 0.33
CNCc1ccc(C)c(NC(=O)c2ccc(Nc3nc(-c4ccccc4)c4ccccc4n3)cc2)c1 | 0.965 ± 0.017 | 0.939 ± 0.017 | 0.9953 ± 0.0021 | 0.959 ± 0.015 | 0.991 ± 0.0027 | 0.988 ± 0.011
CC(C)[C@H](O)C(=O)N[C@@H](C)C(=O)N[C@@H]1C(=O)N(C)CCc2ccccc21 | 0.964 ± 0.019 | 0.983 ± 0.025 | 0.98 ± 0.021 | 0.998 ± 0.013 | 0.979 ± 0.014 | 0.98 ± 0.012
Cc1[nH]nc2ccc(-c3cncc(OC[C@@H](N)Cc4ccccc4)c3)cc12 | 0.452 ± 0.007 | 0.0555 ± 0.0049 | 0.792 ± 0.022 | 0.129 ± 0.0089 | 0.1 ± 0.012 | 0.0136 ± 0.0021
N#C/C(=C/c1ccc(O)c(O)c1)C(=O)NCc1ccccc1 [Tyrphostin AG 490] | 1.01 ± 0.016 | 1.03 ± 0.015 | 0.999 ± 0.028 | 1 ± 0.014 | 1.02 ± 0.01 | 1.02 ± 0.01
NCCCS(=O)(=O)O [3-Amino-1-propanesulfonic acid sodium salt] | 0.9767 ± 0.0021 | 0.842 ± 0.028 | 0.9927 ± 0.0021 | 0.917 ± 0.042 | 0.998 ± 0.011 | 0.9267 ± 0.0015
NC(Cc1ccc(Cl)cc1)C(=O)O (racemic) [(±)-p-Chlorophenylalanine] | 1.002 ± 0.0072 | 1.01 ± 0.015 | 1.006 ± 0.0075 | 1 ± 0.011 | 1.007 ± 0.0058 | 1.003 ± 0.0058
Cc1nc2c([nH]1)c(=O)n(C)c(=O)n2Cc1ccco1 [Furafylline] | 1 ± 0.018 | 0.967 ± 0.016 | 1.003 ± 0.0058 | 0.987 ± 0.022 | 0.9963 ± 0.0015 | 0.9977 ± 0.0025
CC(NCCc1ccc(O)cc1)C(O)c1ccc(O)cc1 (stereo not given) [Ritodrine hydrochloride] | 0.994 ± 0.01 | 0.988 ± 0.02 | 1.02 ± 0.015 | 0.982 ± 0.0096 | 0.982 ± 0.0066 | 0.9927 ± 0.0015
CC(NCCc1ccc(O)cc1)C(O)c1ccc(O)cc1 (stereo not given) [Ritodrine HCl] | 1.01 ± 0.011 | 0.984 ± 0.028 | 1.04 ± 0.017 | 0.984 ± 0.038 | 0.998 ± 0.013 | 0.9917 ± 0.0023
CC(C)(O)CC(=O)NCCn1ccc2ncnc(Nc3ccc(Oc4cccc(C(F)(F)F)c4)c(Cl)c3)c21 | 0.906 ± 0.038 | 0.894 ± 0.012 | 0.9267 ± 0.0061 | 0.901 ± 0.026 | 0.918 ± 0.0062 | 0.824 ± 0.029
